# From PubChem BioAssay AID485294 (National Center for Advancing Translational Sciences (NCATS), 2010)
# Screen size: about 370,000 compounds; about 150 (0.041%) were called active. Inconclusive results, whose numbers are uncertain, are shown with a selection of clear calls. Calls follow the shape of the dose curve; as a rule, active = well fitted inhibition curve with a large enough effect; inconclusive = small, poorly fitted or top-dose-only effect; inactive = flat fitted curve, though single readings scatter. Potencies of inconclusive entries are left out as doubtful fits.
# Target: Beta-lactamase (Escherichia coli (strain K12)) (UniProt P00811)
# Chain of UniProt P00811 (P00811 whole entry, looked up): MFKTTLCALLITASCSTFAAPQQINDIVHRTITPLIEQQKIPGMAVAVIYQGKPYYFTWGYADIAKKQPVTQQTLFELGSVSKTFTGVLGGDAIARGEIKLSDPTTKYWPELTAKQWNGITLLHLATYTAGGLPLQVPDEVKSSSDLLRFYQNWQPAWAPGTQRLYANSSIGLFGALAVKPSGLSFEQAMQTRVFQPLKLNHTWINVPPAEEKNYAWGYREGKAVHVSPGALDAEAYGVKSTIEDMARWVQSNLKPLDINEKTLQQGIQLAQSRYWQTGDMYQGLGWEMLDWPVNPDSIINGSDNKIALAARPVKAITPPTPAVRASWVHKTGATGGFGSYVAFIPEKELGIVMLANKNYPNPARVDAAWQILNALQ
# Test: qHTS Inhibitors of AmpC Beta-Lactamase (assay with detergent); also: nearly all actives have a fitted effect of over 25% in size
# Conditions: AmpC hydrolysis of nitrocefin, absorbance 480 nm, 0.01% Triton; series mostly up to 114 µM
# Procedure, shortened: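 20 mM phosphate pH 7.0 + 0.01% (detergent screen) or 0.0001% Triton X-100; 5.3 nM AmpC reagent; cpd preinc 15 min RT; nitrocefin (800 uM stock) to start; A480 q20 s × 4 min; Activity was normalised to no-enzyme and no-compound control wells.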
# Potency is read from the fitted curve at half-maximal effect; tags tell the direction and shape of the fitted curve.
row,Compound,Potency
1,O=C1SC(SC(=Nc2ccccc2)Nc2ccccc2)C(=O)N1c1ccccc1 (stereo not drawn),"inconclusive [inhibitor, partial curve]"
2,COc1ccc(C(c2nnnn2Cc2ccccc2)N2CCN(C(=O)c3ccco3)CC2)cc1 (stereo not drawn),"inconclusive [inhibitor, single point]"
3,COC(=O)c1cc2ccc(OC)c(OC)c2c(=O)s1,"inconclusive [inhibitor, partial curve]"
4,O=C(NCCO)c1cccc(Nc2nc(-c3ccccc3)c3cc(Cl)ccc3n2)c1,"inconclusive [inhibitor, full curve, poor fit]"
5,Cc1cc([N+](=O)[O-])nn1CC(=O)NC(C)c1ccccc1 (stereo not drawn),"inconclusive [inhibitor, full curve, poor fit]"
6,Cc1nc(SCC(=O)Nc2nnc(C(C)C)s2)n[nH]1,"inconclusive [inhibitor, full curve, poor fit]"
7,Cc1c(C(=O)NCC2CCCO2)oc2c(Cl)cccc12 (stereo not drawn),"inconclusive [inhibitor, full curve, poor fit]"
8,COc1ccc(CCNCc2ccncc2)cc1,"inconclusive [inhibitor, partial curve, poor fit]"
9,O=[N+]([O-])c1ccc(N/N=C2\CC3CC=CC23)cc1 (stereo not drawn),inactive
10,Cc1cc(=O)oc2c(CN(CC(C)C)CC(C)C)c(O)ccc12,"inconclusive [inhibitor, single point]"
11,Cc1[nH]c2ccc(-c3nnc(SCC(=O)NCc4ccco4)n3Cc3ccccc3)cc2c1C,"inconclusive [inhibitor, single point]"
12,Cc1cccc(N2CCN(C(=O)c3c(-c4ccccc4)noc3C)CC2)c1C,inactive
13,CCN1C(=NCc2ccco2)N[C@@H](c2cccc(F)c2)C(C(=O)OC)=C1C,"inconclusive [inhibitor, single point]"
14,OCc1cn(-c2ccccc2)nc1-c1ccco1,"inconclusive [inhibitor, full curve]"
15,COc1cccc(/C=C/C(=O)OCC(=O)Nc2cccc(S(=O)(=O)N3CCOCC3)c2)c1OC,"inconclusive [inhibitor, full curve, poor fit]"
16,O=C(NCc1cccs1)c1ccc2c(c1)OCCO2,"inconclusive [inhibitor, full curve, poor fit]"
17,CC(=O)N(CCN(C(C)=O)c1ccccc1)c1ccccc1,inactive
18,COc1ccc(/C=C(\C#N)c2nc(-c3cc(Cl)ccc3OC)cs2)cc1,inactive
19,CN(CC(=O)Nc1ccccc1C(F)(F)F)C(=O)C1CCN(S(=O)(=O)c2ccc3c(c2)OCCO3)CC1,"inconclusive [inhibitor, full curve, poor fit]"
20,COc1ccc(Br)cc1CNCCSc1nnnn1C,"inconclusive [inhibitor, full curve, poor fit]"
21,Cc1ccccc1-c1nc(-c2ccc(NC(=O)c3ccc(Br)o3)cc2)no1,"inconclusive [inhibitor, full curve, poor fit]"
22,CCCC(=O)N(CCc1ccc(OC)cc1)Cc1nc2ccccc2c(=O)[nH]1,"inconclusive [inhibitor, full curve, poor fit]"
23,O=C(Nc1ccccc1)N1CCCC(CNS(=O)(=O)Cc2ccccc2)C1 (stereo not drawn),inactive

row,Compound,Potency
1,COc1cc(NC(=O)c2ccc(C(C)(C)C)cc2)c(OC)cc1NC(=O)CN1CCCCC1,inactive
2,Oc1ccccc1Nc1nc(-c2ccccc2)c2cc(Cl)ccc2n1,inactive
3,Cc1ccc(S(=O)(=O)N[C@H](C(=O)N2CCC(C(=O)N[C@@H](CCC(N)=O)C(=O)O)CC2)C(C)C)cc1,inactive
4,O=C(O)CCCCCn1c(SCc2cc(=O)n3ccccc3n2)nc2ccsc2c1=O,"inconclusive [inhibitor, full curve, poor fit]"
5,O=C(CSc1nc(Nc2ccccc2)nc(N2CCOCC2)n1)Nc1ccc2c(c1)OCCO2,"inconclusive [inhibitor, full curve, poor fit]"
6,CCCn1c(-c2cc(OC)c(OC)c(OC)c2)nc2c1c(=O)[nH]c(=O)n2Cc1ccccc1,"inconclusive [inhibitor, full curve]"
7,Cc1ccc(C(=O)C[n+]2cc(-c3ccccc3)n3c2CCCCC3)cc1,"inconclusive [inhibitor, full curve]"
8,COC(=O)c1ccc(Cl)cc1NC(=O)N1CC=C(c2c[nH]c3ccccc23)CC1,inactive
9,COc1ccccc1N1CCN(C(=O)c2c(-c3ccccc3Cl)noc2C)CC1,"inconclusive [inhibitor, full curve, poor fit]"
10,Cc1ccc(NC(=O)CCC2CC(C)(C)OC2=O)cc1 (stereo not drawn),"inconclusive [inhibitor, partial curve, poor fit]"
11,Cn1c(=O)c2ncn(CC(=O)N=Nc3c(O)[nH]c4ccccc34)c2n(C)c1=O,"inconclusive [inhibitor, partial curve, poor fit]"
12,Cc1[nH]n2c(=O)c3c(nc2c1-c1ccc(F)cc1)CCCC3,inactive
13,NC(=O)c1ccccc1OCC(=O)Nc1ccc2c(c1)OCCO2,"inconclusive [inhibitor, full curve, poor fit]"
14,O=c1nc2sc3ccccc3n2c(=O)n1-c1cccc(Cl)c1,inactive
15,O=C(C1Cc2ccccc2CN1S(=O)(=O)c1ccc(F)cc1)N1CCOCC1 (stereo not drawn),"inconclusive [inhibitor, single point]"
16,CC1CCN(C(=S)Nc2ccc(SC(F)F)cc2)CC1,"inconclusive [inhibitor, full curve, poor fit]"
17,COc1ccc2nc(SCC(=O)N3CCN(c4ccc(F)cc4)CC3)c(C#N)cc2c1,inactive
18,Cc1cc(C(=O)NCc2ccco2)no1,"inconclusive [inhibitor, full curve, poor fit]"
19,Cc1cc(C(C)(C)C)ccc1OCCOCCN1CCCC1,inactive
20,CN1C(=O)CSc2ccc(NC(=O)N3CCOCC3)cc21,"inconclusive [inhibitor, full curve]"
21,CCCCOc1ccc(C(=O)NCc2ccccn2)cc1,"inconclusive [inhibitor, full curve, poor fit]"
22,O=C(NC1CCCCC1)C(c1ccc2ncccc2c1)N(Cc1cccs1)C(=O)c1cccs1 (stereo not drawn),"inconclusive [inhibitor, full curve, poor fit]"
23,CCCOc1ccc(/C=C/c2[nH]c(=O)[nH]c(=O)c2[N+](=O)[O-])cc1OCC,inactive

row,Compound,Potency
1,CCOC(=O)c1sc(C)c2c1NC(C)(c1cccs1)NC2=O (stereo not drawn),inactive
2,CCOC(=O)Cc1csc(NC(=O)CCSc2ccccc2)n1,inactive
3,COc1ccccc1C(=O)NC(CCSC)C(=O)NNC(=O)c1ccccc1C (stereo not drawn),"inconclusive [inhibitor, full curve]"
4,Cc1cc(C)nc(NC2=NCCN2C(=O)NC2CCCCC2)n1,"inconclusive [inhibitor, full curve, poor fit]"
5,COc1cccc2cc(-c3cc(=O)oc4ccc(OCC(C)=O)cc34)oc12,"inconclusive [inhibitor, full curve, poor fit]"
6,COc1cccc(C2C(C(=O)c3cccs3)=C(O)C(=O)N2CCN2CCOCC2)c1 (stereo not drawn),"inconclusive [inhibitor, full curve, poor fit]"
7,COC(=O)c1ccc(COc2ccc(/C=C(\C#N)c3nc4ccccc4[nH]3)cc2OC)o1,inactive
8,Cc1nc(N)sc1-c1csc(Nc2ncccn2)n1,"inconclusive [inhibitor, full curve, poor fit]"
9,COCCNC(=O)/C(C#N)=C\c1ccc(CNS(=O)(=O)c2ccc(C)cc2)o1,inactive
10,COC(=O)c1c(NC(=O)c2ccc(C)cc2)sc(Cc2ccccc2)c1C,"inconclusive [inhibitor, partial curve, poor fit]"
11,Cc1nc(NC(=O)CCc2ccccc2)ccc1Br,inactive
12,O=C(NCCN1CCOCC1)c1c[nH]c2ccc(S(=O)(=O)N3CCOCC3)cc2c1=O,"inconclusive [inhibitor, full curve]"
13,O=C(COC(=O)c1cc([N+](=O)[O-])ccc1N1CCOCC1)Nc1cc(F)ccc1F,"inconclusive [inhibitor, full curve, poor fit]"
14,Cc1cc(C)cc(N=Cc2[nH]c3ccc(Br)c(Cl)c3c2O)c1,"inconclusive [inhibitor, full curve]"
15,Cc1cc(SCC(=O)Nc2cccc(S(=O)(=O)NC3=NCCCCC3)c2)c(C)cc1Br,inactive
16,CCC1(CC)NC(=O)NC1=O,"inconclusive [inhibitor, partial curve]"
17,COCCn1c(=S)[nH]c2ccc(N(C)C)cc2c1=O,"inconclusive [inhibitor, single point]"
18,CCN1C(=O)CC(N2CCC(C(=O)N3CCOCC3)CC2)C1=O (stereo not drawn),"inconclusive [inhibitor, full curve, poor fit]"
19,Cc1ccc(C(c2nnnn2CCc2ccccc2)N2CCC(C)CC2)cc1 (stereo not drawn),inactive
20,CCOCCCNC(=O)c1ccc(OC)cc1,"inconclusive [inhibitor, full curve, poor fit]"
21,CN1/C(=C\C(=O)COC(=O)c2ccco2)C(C)(C)c2ccccc21,inactive
22,CCOc1ccc(-c2nc(CSCC(=O)NC3CCCc4ccccc43)c(C)o2)cc1 (stereo not drawn),"inconclusive [inhibitor, full curve, poor fit]"
